# Experimental data from the RNAGym collection of RNA variant scans (doi:10.1073/pnas.2313332121).
# Variants at the background level are over-represented here.
# B1: TPR 5TU (parent)
# chain: GGAUCUUCUCGAUCUAACAAAAAAGACAAAUCUGCCACAAAGCUUGAGAGCAUCUUCGGAUGCAGAGGCGGCAGCCUUCGGUGGCGCGAUAGCGCCAACGUUCUCAACUAUGACACGCAAAACGCGUGCUCCGUUGAAUGGAGUUUAUCAUG
# Variants of: B1
# Assay: polymerase ribozyme fitness, log enrichment relative to wild type (log ratio); higher = more active; in vitro selection for triplet polymerase activity
# Outline: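 The heterodimeric triplet polymerase ribozyme's subunits were each mutagenized into PCR-built libraries and transcribed. Every library was selected once, in triplicate, by annealing with a biotinylated primer, the partner subunit and triplets, incubating frozen at −7 °C, gel-excising extended constructs, capturing on streptavidin beads and running RT-PCR. Input and output libraries were Illumina-sequenced, with genotypes kept only at ≥10 input reads and ≥1 read per output. Fitness, from inverse-variance-weighted replicate averages, is the base-2 logarithm of genotype enrichment over wild-type enrichment.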
row,Variant,polymerase ribozyme fitness (log ratio)
1,A17G G88C C114A U127C,≤ -4.2
2,A17G C57U C96U U127C C131A G133U U146C,≤ -4.2
3,A17U A26U C36G A122U,≤ -4.2
4,A17U A29C A40U U53A C85A C96A G143A,≤ -4.2
5,A17C U55A G59A A60G C96A G143U,-3.41
6,A17G A20C G50C C75U U148G,≤ -4.2
7,A17C A47C C95U C116U,-0.195
8,A17U U45G A52G C96A C108A A113U C131A U139A G140A,≤ -4.2
9,A17C G68C C85G C125U G143C,≤ -4.2
10,A17U G50U A91U C118U G136A,≤ -4.2
11,A17G A47C C79G,≤ -4.2
12,A17G U55A A106C C123A G124U G136C A138U,≤ -4.2
13,A17G C54G U55C C69U G71C G84A C93A,≤ -4.2
14,A17G A24C A41U A91U A98G,≤ -4.2
15,A17G C18A C69G U101G C105U A120U A142U,-1.71
16,A17G C27U A30G U45G C57U G83U G88A,≤ -4.2
17,A17U A28U U56C G92U C118G G140U,≤ -4.2
18,A17U A22U A52G G92C A115G,-2.67
19,A17U A37U G59C G67C A91U A113C C123G G140U,≤ -4.2
20,A17G C96A A119U,-0.596
21,A17U G83A G86U A142C,≤ -4.2

row,Variant,polymerase ribozyme fitness (log ratio)
1,A17G U44C U45A G48U C95U A98G G124A,≤ -4.2
2,A17G A29U C87G C118A U148G,≤ -4.2
3,A17C U44G U61G,≤ -4.2
4,A17G C93G U102G A120U C129U,≤ -4.2
5,A17G C38U G58U G68U A110U,≤ -4.2
6,A17G C69G C85G A107C A122G,≤ -4.2
7,A17C G74U C85A A91G G92C C93G C118A A120C,≤ -4.2
8,A17U U56A G133U U148C,≤ -4.2
9,A17G C54G,-1.5
10,A17G G25C G50A G86A C93G,≤ -4.2
11,A17G A37U C87U C99A C123U,-3.98
12,A17U G50A A73U G83C G124U,≤ -4.2
13,A17C G88A A91G U148A,-4.03
14,A17U A26C G62U U78G G100A G152U,≤ -4.2
15,A17G C54G G68A C93G A120U G140U,≤ -4.2
16,A17U C85G C116G C118A G143U,≤ -4.2
17,A17G C18A G84C C93U,-3.84
18,A17C A40U U55A A60U A66C C85G C116G G141C A147U,≤ -4.2
19,A17C U78G G92U C93A,≤ -4.2
20,A17U C18A C54U U55G C75U C95A,-1.89
21,A17U U55A,-1.08

row,Variant,polymerase ribozyme fitness (log ratio)
1,A17U C85A C108U A142U,≤ -4.2
2,A17U C54U G59C A66G C87A C129G,≤ -4.2
3,A17G U78G G84C C85U U90C G117U,≤ -4.2
4,A17C C27A A52G A60U C69U C85A C95G C125A,≤ -4.2
5,A17G C69U C95U C116U G133A,≤ -4.2
6,A17G C35A C69A A91C G100A,≤ -4.2
7,A17U A49U C85A A97U,≤ -4.2
8,A17G C27U A49U C79A G83U C87U A120U,≤ -4.2
9,A17U A30C C72U C75U C85G,≤ -4.2
10,A17U A49G G68C C87U,≤ -4.2
11,A17U U31G U44G G50A C75A A91G A97G C99A A106U U144G,≤ -4.2
12,A17U A19U A22G G88U A110G,≤ -4.2
13,A17U A21U G67C C76U A91U C118G,≤ -4.2
14,A17U C85U U104G,-1.01
15,A17G A37U A47U C85U,-1.62
16,A17G A40U C87U C103G A115U C125U G133C,≤ -4.2
17,A17C C76U C85A U109C A122U,≤ -4.2
18,A17C A64U C103G A150U,≤ -4.2
19,A17C C95U C96U G136A U144C A147U,-0.941
20,A17U A21G A49G U53G C54U C85U,≤ -4.2
21,A17U A40G U44A G84A A97U G112U,≤ -4.2

row,Variant,polymerase ribozyme fitness (log ratio)
1,A17U U45A A47G G50A C51A A64U,≤ -4.2
2,A17G A29U C72A G81U G83U C108U G133U,≤ -4.2
3,A17U C87U G94C,-3.01
4,A17U C93U C114A C116G,≤ -4.2
5,A17C A52U C85G C99G G128A,≤ -4.2
6,A17U A30C C38U U53G G58U C99U C132U,≤ -4.2
7,A17U A97G A107G,≤ -4.2
8,A17U A23C C99U C108U U135A,≤ -4.2
9,A17U G81U U90G A91G G128A,≤ -4.2
10,A17G A21C C116U,0.03
11,A17C G62U C93G,-3.31
12,A17G G50C C51G G88U C96U C108G,≤ -4.2
13,A17U C129G,-2.62
14,A17G A24U A26U G58A,-4.02
15,A17C A40U G42A A52U G84A C85G U102A C118U,≤ -4.2
16,A17C G68A G83A C116A G128A,≤ -4.2
17,A17U C51U A52G C57U G84C G117C A137C A150G G152U,≤ -4.2
18,A17U A24U U44A G58A G68A C87U C125U,≤ -4.2
19,A17G U61G U90C C93G G152C,≤ -4.2
20,A17U G84A C96G A98G A107C U148C,≤ -4.2
21,A17U C114U,-1.91
